# Results as given in PubChem BioAssay AID1479 (National Center for Advancing Translational Sciences (NCATS), 2009).
# “And” between values parts separate entries of the source, which are not always exact repeats. Equal values may be shown once. Out of some 280,000 compounds screened, about 820 (0.29%) were called active. The shares of active, inactive and inconclusive entries below differ from those in the screen. Calls follow the shape of the dose curve; as a rule, active = well fitted curve in either direction with a large enough effect; inconclusive = small, poorly fitted or top-dose-only effect; inactive = flat fitted curve, though single readings scatter. Potencies beside an inconclusive call are fits to weak or partial responses and may not hold up.
# Experiment: Total Fluorescence Counterscreen for Inhibitors of the Interaction of Thyroid Hormone Receptor and Steroid Receptor Coregulator 2
# Conditions: TRb/SRC2 Texas Red total fluorescence interference; series mostly up to 106 µM; fluorescence change, negative = quenching: at the top concentration
# How it was run: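 Human TRβ ligand-binding domain (0.6 uM) and Texas Red SRC2 peptide (20 nM) in Tris buffer with 1 uM T3 and 5% DMSO were incubated with pinned compound for 5 hr at ambient temperature. Total fluorescence was computed as S + 2P (555/632 nm).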
# % is scaled to controls: 0 for no effect and ±100 for the full control effect; potency is read from the fitted curve at half-maximal effect; tags tell the direction and shape of the fitted curve or compound fluorescence and quenching.
Compound,Potency,"fluorescence change, negative = quenching"
O=C(O)CCCC[C@@H]1CCSS1,"inconclusive: 0.891 µM [quencher, full curve]",–
O=C(NC(=S)Nc1ccc(CN2CCOCC2)cc1)c1ccccc1[N+](=O)[O-],"inconclusive: 11200 µM [quencher, partial curve]",–
CCn1c(C(=O)NCc2ccccc2Br)cc2oc3ccccc3c21,"inconclusive: 25.1 µM [falling, full curve, poor fit]",–
O=S(=O)(c1ccc(Cl)s1)N1CCN(Cc2ccccc2)CC1,–,inactive: -5.37%
COc1ccc(OC)c(/C=N/NC(=O)CCN2CCN(C(c3ccccc3)c3ccccc3)CC2)c1,"inconclusive: 100 µM [falling, partial curve, poor fit]",–
Cc1ccc(Cc2cn3cc(-c4ccccc4)nc3s2)cc1,"inconclusive: 1 µM [falling, full curve, poor fit]",–
COc1ccc2c(c1)C=CC1(O2)N(CCO)c2ccccc2C1(C)C (centres undefined),active: 50.1 µM [fluorescent],–
CCOc1cc(/C=C2\SC(=N)N(c3nonc3N)C2=O)ccc1OCCN1CCOCC1,"inconclusive: 35.5 µM [quencher, partial curve]",–
Cc1cccc(S(=O)(=O)c2cn(C)c3cc(N4CCN(c5ccc(F)cc5)CC4)c(F)cc3c2=O)c1,"inconclusive: 28.2 µM [quencher, full curve]",–
CCOC(=O)c1c(-c2ccc(C)cc2)csc1NC(=O)c1cc(=O)c2cc(C)cc(C)c2o1,–,inactive: 9.73%
COc1ccc(S(=O)(=O)NCc2ccccc2)cc1,–,inactive: 0.516%
O=C1Nc2ccc(I)cc2/C1=C/c1cc(Br)c(O)c(Br)c1,"inconclusive: 44.7 µM [quencher, partial curve] and inconclusive: 50.1 µM [quencher, partial curve] and inconclusive: 31.6 µM [quencher, partial curve]",–
CCc1ccc(NC(=O)C(=O)NCC(c2cccnc2)N2CCc3ccccc3C2)cc1 (centres undefined),"inconclusive: 56.2 µM [falling, partial curve, poor fit]",–
CCc1nnc(SCc2cccc(Cl)c2)c2cc3sccc3n12,active: 25.1 µM [quencher],–
Cc1c(-c2cccc(NC(=O)c3cccs3)c2)nc2ncccn12,"inconclusive: 17.8 µM [falling, full curve, poor fit]",–
CC(C)C(NC(=O)CSCc1ccc([N+](=O)[O-])cc1)C(C)C,"inconclusive: 14.1 µM [rising, single point]",–
CN(C)c1ccc(/C=C2\C(=O)Nc3ccccc32)c2ccccc12,–,inactive: -0.992%
CCN(CC)C(=O)CSc1nc2cc3c(cc2c(=O)n1CCCC(=O)NCc1ccc2c(c1)OCO2)OCO3,"inconclusive: 0.0009 µM [quencher, full curve]",–
Cc1ccc(-n2ncc(C(=O)NCc3ccccn3)c2C2CCN(C(=O)OC(C)(C)C)CC2)cc1C,"inconclusive: 0.112 µM [quencher, full curve]",–
CCOC(=O)c1cc(-c2ccccc2)n(CCCC(=O)Nc2cccc(C)c2)c1C,"inconclusive: 22400 µM [falling, partial curve, poor fit]",–
CC(C)(C)c1ccc(S(=O)(=O)c2cnc(SCC(=O)Nc3ccc4c(c3)OCCO4)[nH]c2=O)cc1,"inconclusive: 20 µM [quencher, full curve]",–
COC(=O)C1=C(C)N2C(=O)CSC2=NC1c1ccc2c(c1)OCO2 (centres undefined),"inconclusive: 44.7 µM [fluorescent, partial curve]",–

Compound,Potency,"fluorescence change, negative = quenching"
Cc1ccc(Cn2c(=O)n(CCCCC(=O)NCc3ccc4c(c3)OCO4)c(=O)c3ccccc32)cc1,"inconclusive: 50.1 µM [falling, partial curve, poor fit]",–
O=C(O)c1cc(C(=O)O)cc(-c2ccc(/C=c3/sc4nc5ccccc5n4c3=O)o2)c1,"inconclusive: 50.1 µM [falling, single point]",–
CCC1CCCCN1S(=O)(=O)c1cc2c(cc1C)NC(=O)CO2 (centres undefined),"inconclusive: 70.8 µM [falling, partial curve, poor fit]",–
CCC(C(=O)Nc1ccccc1OC)n1c(C(=O)OC)cc2sc(Cl)cc21 (centres undefined),active: 20 µM [quencher],–
CC(=O)Nc1ccc(C(=O)Nc2ccc3c(c2)N(C2CCCC2)C(=O)c2ccccc2S3)cc1,–,inactive: -4.32%
CC(=O)NC(=S)Nc1ccc(NC(=S)NC(=O)/C=C/c2ccco2)cc1,"inconclusive: 35.5 µM [falling, full curve, poor fit]",–
NC(N)=[N+]1CCc2ccccc2C1,"inconclusive: 3.98 µM [falling, full curve, poor fit]",–
COc1ccc(-n2ncc(C(=O)NCCN3CCOCC3)c2C2CCN(C(=O)OC(C)(C)C)CC2)cc1,"inconclusive: 0.282 µM [falling, full curve, poor fit]",–
Fc1ccc(C(CCCn2nnc(-c3cccnc3)n2)c2ccc(F)cc2)cc1,–,inactive: 1.23%
Cc1cccc(CSc2nnc(CCCCCN)o2)c1,"inconclusive: 12.6 µM [quencher, full curve]",–
N#Cc1cc2c(nc1Cl)CCCC2,–,inactive: -2.17% [at 53 µM]
CC(=O)c1ccc(NC(=O)CSc2nnc(N)s2)cc1,"inconclusive: 12.6 µM [quencher, full curve]",–
Cc1cccn2c(=O)c(/C=C(\C#N)C(=O)NC3CCS(=O)(=O)C3)c(N3CCC(C(N)=O)CC3)nc12 (centres undefined),active: 0.0003 µM [quencher],–
CCc1ccc(N2C(=O)CN(S(=O)(=O)CC)CC2(C)C(=O)NC2CCCCC2)cc1 (centres undefined),"inconclusive: 50.1 µM [quencher, partial curve]",–
CCOc1nc(NCCO)nc(Nc2ccc([N+](=O)[O-])cc2)n1,"inconclusive: 39.8 µM [falling, partial curve, poor fit]",–
Cc1c2c(=O)n(-c3nc4ccccc4s3)nc-2cc(O)n1Cc1ccccc1,"inconclusive: 17.8 µM [quencher, full curve]",–
COc1cc(/C=C2\SC(N3CCc4ccccc4C3)=NC2=O)cc(OC)c1OC,"inconclusive: 0.794 µM [quencher, full curve]",–
Cc1ncc(CO)c(/C=N/NC(=O)c2cc(O)c(O)c(O)c2)c1O,"inconclusive: 39.8 µM [quencher, partial curve]",–
CCN1CCN(CCCNC(=O)Cn2c(-c3cccs3)cc3cc(F)ccc32)CC1,active: 141 µM [quencher],–
O=c1c(S(=O)(=O)c2ccccc2)cn(Cc2cccc(F)c2)c2cc(N3CCCC3)c(F)cc12,"inconclusive: 100 µM [quencher, partial curve]",–
CCCS(=O)(=O)N1CC(=O)N(c2ccc(C)cc2C)C(C)(C(=O)NC2CCCCCC2)C1 (centres undefined),"inconclusive: 28.2 µM [quencher, full curve]",–
O=C(Cn1c(=O)nc(-c2ccccc2)c2cc(Cl)ccc21)NCc1ccc(Cl)cc1,–,inactive: -1.77%

Compound,Potency,"fluorescence change, negative = quenching"
Cc1c(CNC2CCC(C)CC2)c(C(=O)O)c(C)n1Cc1ccccc1 (centres undefined),"inconclusive: 631 µM [quencher, partial curve]",–
COc1ccccc1NC(=O)CSC1=Nc2ccccc2C2=NC(CC(=O)NCc3ccc4c(c3)OCO4)C(=O)N12 (centres undefined),"inconclusive: 63.1 µM [falling, partial curve, poor fit]",–
COc1ccccc1N=C1SC(C(=O)Nc2ccccc2OC)CC(=O)N1C (centres undefined),"inconclusive: 0.398 µM [falling, full curve, poor fit]",–
Cc1cccc(NC(=O)c2ccc(CNS(=O)(=O)c3ccc4c(c3)C(C)(C)C(=O)N4C)cc2)c1,–,inactive: -2.59%
CO/N=C\CC(=O)Nc1ccc(Cl)c(Cl)c1,–,inactive: -0.824%
O=C(O)c1cc(N=Nc2c(O)ccc3ccccc23)cc(C(=O)O)c1,"inconclusive: 28.2 µM [quencher, partial curve]",–
COc1ccc(S(=O)(=O)N(Cc2nc(-c3ccc(Cl)cc3)no2)C2CCCCC2)cc1,"inconclusive: 112 µM [falling, partial curve, poor fit]",–
CCCCC(c1nnnn1CS(=O)(=O)c1ccc(C)cc1)N1CCN(c2ccccc2)CC1 (centres undefined),–,inactive: -1.11%
COc1ccc(CC(=O)Nc2cc(-c3cn4cccnc4n3)ccc2OC)cc1,"inconclusive: 39.8 µM [falling, full curve, poor fit]",–
O=C(Nc1ccc2nc(SCCOc3ccccc3Cl)sc2c1)c1ccc2c(c1)OCO2,"inconclusive: 3.55 µM [falling, full curve, poor fit]",–
CC1CCC(C(C)C)C(OP(=O)(c2ccc(N(C)C)cc2)C(O)c2cccnc2)C1 (centres undefined),–,inactive: -0.931%
O=C(NCC(c1cccnc1)N1CCc2ccccc21)c1ccc(F)cc1 (centres undefined),active: 0.0794 µM [quencher],–
CCCC(=O)Nc1cc(C)c2c(=O)oc3ccccc3c2n1,"inconclusive: 70.8 µM [rising, single point]",–
COc1ccc(S(=O)(=O)Nc2ccc(O)c3ccccc23)cc1,–,inactive: -0.771%
CCOC(=O)c1ccc(N2C(=O)c3n[nH]c(-c4ccco4)c3C2c2cccc(O)c2)cc1 (centres undefined),–,inactive: -0.988%
N#Cc1ncc(-c2ccc3c(c2)OCCOCCOCCOCCO3)nc1C#N,–,inactive: -0.282% [at 53 µM]
O=[N+]([O-])c1cccc(-c2nnc3ccc4ccccc4n23)c1,"inconclusive: 39.8 µM [falling, full curve, poor fit]",–
COc1ccc(CCNCc2ccc3c(c2)n(C)c(=O)n3C)cc1OC,active: 89.1 µM [quencher],–
CCc1nc(SC)ncc1C(=O)N1CCN(c2cc(C)ccc2C)CC1,"inconclusive: 31.6 µM [quencher, full curve]",–
CC(NC(=O)c1ccc2c(c1)sc1nc(-c3ccccc3)cn12)C12CC3CC(CC(C3)C1)C2 (centres undefined),"inconclusive: 6.31 µM [falling, full curve, poor fit]",–
